# Assay results: the supplement of paper PMC3334620
# Over roughly 33,000 sequences, “E-score (-0.5 to 0.5)” has its median near -0.056; the highest 2% begin near 0.38. The list shows a part of the results.
# Target: Stb4 (UniProt P50104)
# Test: PBM E-score (8-mer binding enrichment) (E-score (-0.5 to 0.5)); higher = stronger / more preferred TF binding; most listed sequences are background and not binding sites
# Conditions: protein concentration: 200 nM; construct: GST-DNA-binding domain
# How it was run: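 Masliner-normalised scans of fluorescent anti-GST signal were the basis for scoring. That signal came from GST-tagged yeast transcription factors applied at about 100-200 nM to double-stranded universal all-10-mer Agilent arrays on fresh or once-stripped slides. Each ungapped eight-base word, pooled with its reverse complement, received an E-score from the Universal PBM Analysis Suite.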
row,Sequence,PBM E-score
1,ATCCAGGA,-0.182
2,GAGCAAAA,-0.158
3,CTCCCTCC,0.0694
4,CAACTGCG,-0.123
5,AACCATAC,0.0322
6,TGACTACA,-0.298
7,TCTAGGAA,-0.178
8,GAGAAAGA,0.123
9,GACTGAAA,0.0179
10,AGCCATCA,-0.0871
11,CGAAAACC,0.237
12,CGTTAACC,-0.058
13,AATATTAT,0.0902
14,AATTCGCC,0.094
15,GCGGGCAA,0.00911
16,ATAGCTGC,-0.0493
17,CCCAACTA,-0.101
18,CCCGAGAG,0.385
19,CTACGTGA,-0.227
20,GGTTGGCA,-0.0928
21,CTAAGTCA,-0.0795
22,CATTCGTC,-0.0104
23,AGCGCTAC,-0.148
24,CTGCCATA,-0.0926
25,AAAGAGGG,-0.224

row,Sequence,PBM E-score
1,GTAGATGA,0.0218
2,TGGATCCA,-0.0343
3,GGCGAAAC,0.0246
4,AATCTTAG,-0.0841
5,AGTGTTAT,0.00574
6,GATCCCAC,-0.00608
7,ATTTGCGC,-0.0378
8,ATGATCCA,-0.032
9,ACTACGTA,-0.0935
10,ACACCATA,-0.025
11,CCCATCTA,-0.134
12,GCGTTTGA,-0.223
13,AATATTGT,0.0146
14,AGCATATC,0.136
15,TAACCATA,-0.19
16,AATCTAAC,0.0435
17,CCAACATC,0.145
18,ACACGTCT,-0.0819
19,AAACGAGC,-0.153
20,CTACACCA,-0.22
21,ATTCACCA,-0.00837
22,CTTGTACA,-0.0352
23,AGTTTAAT,-0.111
24,AATCTAAG,-0.107
25,TCTTGGCA,-0.134

row,Sequence,PBM E-score
1,AAACCGCT,-0.0918
2,CCTGAGCC,-0.149
3,ACATGGTC,-0.193
4,AACGACAG,-0.329
5,GACGCCAA,-0.155
6,GAAGAGTA,0.0567
7,CCAAGCTA,-0.215
8,AAATAGAG,0.0304
9,CGGGAACA,0.374
10,CGTTCTGC,0.0264
11,ACGTGTGG,-0.223
12,CTCGGCAC,0.451
13,AGTTGTGG,-0.214
14,ACCAAGCC,-0.139
15,AAGGCTAC,-0.0344
16,CCCAGAAA,0.0332
17,TAGCCGGA,0.384
18,GGGCAAAC,0.0685
19,ACCCTGCC,0.0104
20,GGCTCGCA,-0.0748
21,GCACAATA,-0.206
22,ATTGGAAG,-0.0546
23,GATGCGAA,-0.0357
24,ATGTATCC,0.237
25,CCGATTTA,0.352

row,Sequence,PBM E-score
1,ACCTAAGA,-0.255
2,AGGAATAA,-0.145
3,ACAAATCT,-0.0774
4,ATACCATG,-0.0942
5,GATCAAGC,-0.0193
6,AGGGGTGG,0.0122
7,CAAGACTG,-0.128
8,CACACGTG,-0.151
9,GAGCACCA,-0.18
10,CCGCCAAG,-0.059
11,CATCCGTA,0.329
12,CGCCTGGC,-0.132
13,ACAAGACG,-0.142
14,TGTCGAAA,-0.175
15,CGAACTGC,0.0971
16,CGACTTAA,-0.0314
17,AGAAACTG,-0.0995
18,CTCCTGCC,-0.00319
19,GGCAATAA,0.0285
20,ATCTAGTG,-0.271
21,AGTAAGGG,0.0462
22,CAGATTGA,0.0111
23,GGTGGAGA,-0.201
24,CAATAGTG,0.11
25,CTGGTGAC,-0.143

row,Sequence,PBM E-score
1,GGAAAGCA,0.195
2,AATCTCCG,0.322
3,TGCCTGAA,-0.178
4,CTCGGCCC,0.343
5,CTCCGATC,0.229
6,ACTCACAG,-0.294
7,AGGAATAG,-0.0913
8,CATTTCAA,-0.252
9,GAGGCATA,0.0573
10,GCTGGAAA,-0.0832
11,ACTACTGA,-0.177
12,GAAGGTGA,0.174
13,AAAACTTC,0.0195
14,GGGATGAA,0.0679
15,AGTGCTTC,0.0383
16,AGCATTAC,-0.028
17,ACTGCCGG,0.302
18,AAAGTATC,0.172
19,ATAAACCA,-0.0367
20,ATCGCCTC,-0.157
21,AGTAACAT,0.0195
22,AGACGTAG,-0.274
23,ATGGACGC,-0.0281
24,AGGGCACA,-0.19
25,GATCCTCA,0.114

row,Sequence,PBM E-score
1,CAGTCTCA,-0.134
2,ATGCCAGC,-0.183
3,GGGATCCC,0.23
4,AGCATGAT,-0.168
5,AGCTGACC,0.0118
6,CGCGAACG,0.0891
7,AAACGATC,-0.099
8,CGGCCTCC,0.188
9,GAATAGGC,0.0273
10,ACCTACGC,0.0721
11,AAGGCCGA,0.323
12,AGATTGAA,-0.0594
13,TCTCCGAA,0.384
14,AACATACC,0.119
15,ACAGGATA,-0.0926
16,TCATACCA,-0.133
17,GCGGTAAA,0.188
18,ATACCTCC,-0.0529
19,ACGCTCCA,-0.0409
20,ACCTCCCC,0.148
21,CCCGCCCG,0.324
22,GCGACAAA,-0.0477
23,ACACTGAA,-0.00995
24,ATCTCAAA,-0.0585
25,GAACTGCA,-0.042

row,Sequence,PBM E-score
1,GATATCAA,-0.0174
2,CAAGACTA,-0.254
3,CATGGGAG,-0.182
4,TGTGGCAA,0.022
5,GACTCCAA,-0.225
6,GCTACAGA,-0.0933
7,CCTGACCA,-0.209
8,CGCGGTAG,0.0883
9,CAGACTTA,-0.315
10,ATATTAAC,0.129
11,ATAACAAC,-0.0405
12,GCTCGTTA,-0.0794
13,CCTAACTC,-0.0754
14,CAAACGTC,-0.132
15,CTCTGCCA,-0.229
16,GCATACCC,0.14
17,CTCGGACA,0.366
18,ATTGTCTA,-0.0114
19,ATCTGATA,-0.0898
20,GCAATCGC,-0.111
21,AATGGCTC,-0.131
22,CGTAGGCA,-0.155
